Laboratory results as given in patent US5955421A, “Peptides containing D-2-alkyl-Tryptophan” (priority 1990, dated 1999).
Several values for one entry are separate records, joined by “and”; a condition that tells them apart may be missing. Equal values may be shown once. At least one peptide structure holds a part that was inferred or is arguable (an end, a ring closure or a residue). Square brackets hold non-standard residues; d marks the D form. Peptide text beside a SMILES is read from it. * marks the point of attachment. dTrp(2-Me) = Cc1[nH]c2ccccc2c1C[C@@H](N)C(=O)O; Acetyl(2-(4-imidazolyl)) = O=C(Cc1c[nH]cn1)*; Trp(2-Me) = Cc1[nH]c2ccccc2c1C[C@H](N)C(=O)O; d2Nal = N[C@H](Cc1ccc2ccccc2c1)C(=O)O; Inp = O=C(O)C1CCNCC1; GABA = NCCCC(=O)O

Key:
Growth Hormone release = assay: GH release in 10-day old rats, s.c. 160 μg/kg; type: in vivo; conditions: 160 μg/kg s.c.
Procedure: The peptides of Examples 4 and 5 were tested as Growth Hormone releasers in rats. GH released in a series of seven 10-day old rats, injected subcutaneously with a standard dose of 160 μg/kg and sacrificed 15 minutes after the injection.

[1] = test system: serum growth hormone and cortisol; assay: Oral capsule in healthy subjects, serum growth hormone and cortisol; type: in vivo, human; conditions: 20 mg capsule, 5 healthy subjects
Procedure: A capsule containing 20 mg of the peptide of Example 18 was orally administered to 5 healthy subjects (3 men and 2 women, ages 30 to 66) and serum growth hormone and cortisol levels were measured at various times after administration.

GH release = assay: Released GH in ten day-rats, s.c. (Table 9); type: in vivo; conditions: 300 μg/kg s.c., 15 minutes, GH control 10 to 31 ng/ml depending on experiment
Procedure: In vivo activity of these compounds was determined in ten day-rats, which were subcutaneously injected (s.c.) with a dose of 300 μg/kg or with different doses in dose-response studies, according to the procedure as described in Deghenghi et. al, Life Sciences 54, 1321 (1994). The released GH was measured 15 minutes following compound administration.

SMILES | GH released (GH release) | further results
Cc1[nH]c2ccccc2c1C[C@@H](NC(=O)[C@H](Cc1c[nH]cn1)NC(=O)[C@H](C)N)C(=O)N[C@@H](C)C(=O)N[C@@H](Cc1c[nH]c2ccccc12)C(=O)N[C@H](Cc1ccccc1)C(=O)N[C@@H](CCCCN)C(N)=O [Example 5, Ala-His-D-2-methyl-Trp-Ala-Trp-D-Phe-Lys-NH2] (H-AH[dTrp(2-Me)]AW[dF]K-NH2) |  | activity as Growth Hormone releaser (Growth Hormone release): very active
Cc1[nH]c2ccccc2c1C[C@H](NC(=O)[C@@H](Cc1c(C)[nH]c2ccccc12)NC(=O)[C@@H](Cc1c(C)[nH]c2ccccc12)NC(=O)CCCN)C(=O)N[C@@H](CCCCN)C(N)=O [Example 18, GAB-D-2-Mrp-D-2-Mrp-2-Mrp-Lys-NH2] (H-[GABA][dTrp(2-Me)][dTrp(2-Me)][Trp(2-Me)]K-NH2) |  | serum growth hormone levels [1]: increased
Cc1[nH]c2ccccc2c1C[C@@H](NC(=O)Cc1c[nH]cn1)C(=O)N[C@H](Cc1c[nH]c2ccccc12)C(=O)N[C@@H](Cc1ccccc1)C(=O)N[C@@H](CCCCN)C(N)=O [IMA-D-Mrp-D-Trp-Phe-Lys-NH2] ({Acetyl(2-(4-imidazolyl))}-[dTrp(2-Me)][dW]FK-NH2) | 60.3 ± 8.1 ng/mL | 
Cc1[nH]c2ccccc2c1C[C@@H](NC(=O)Cc1c[nH]cn1)C(=O)N[C@H](Cc1ccc2ccccc2c1)C(=O)N[C@@H](Cc1ccccc1)C(=O)N[C@@H](CCCCN)C(N)=O [IMA-D-Mrp-D-β-Nal-Phe-Lys-NH2] ({Acetyl(2-(4-imidazolyl))}-[dTrp(2-Me)][d2Nal]FK-NH2) | 56.0 ± 12.4 ng/mL | 
Cc1[nH]c2ccccc2c1C[C@@H](NC(=O)C1CCNCC1)C(=O)N[C@H](Cc1c[nH]c2ccccc12)C(=O)N[C@@H](Cc1ccccc1)C(=O)N[C@@H](CCCCN)C(N)=O [INIP-D-Mrp-D-Trp--Phe--Lys--NH2, INIP-D-Mrp-D-Trp-Phe-Lys-NH2] (H-[Inp][dTrp(2-Me)][dW]FK-NH2) | 155 ng/mL and 119.5 ± 18.6 ng/mL | 
Cc1[nH]c2ccccc2c1C[C@@H](NC(=O)C1CCNCC1)C(=O)N[C@H](Cc1ccc2ccccc2c1)C(=O)N[C@@H](Cc1ccccc1)C(=O)N[C@@H](CCCCN)C(N)=O [INIP-D-Mrp-D-β-Nal--Phe--Lys--NH2, INIP-D-Mrp-D-β-Nal-Phe-Lys-NH2] (H-[Inp][dTrp(2-Me)][d2Nal]FK-NH2) | 150 ng/mL and 125.9 ± 13.0 ng/mL | 
